# Measured values published in the BET-seq Pho4 binding data (Le et al. 2018).
# The other results are listed elsewhere or left out. Values were computed here from the reads of four pooled replicates and scatter widely.
# Target: T1, Pho4 (S. cerevisiae) (UniProt P07270)
# T1 sequence: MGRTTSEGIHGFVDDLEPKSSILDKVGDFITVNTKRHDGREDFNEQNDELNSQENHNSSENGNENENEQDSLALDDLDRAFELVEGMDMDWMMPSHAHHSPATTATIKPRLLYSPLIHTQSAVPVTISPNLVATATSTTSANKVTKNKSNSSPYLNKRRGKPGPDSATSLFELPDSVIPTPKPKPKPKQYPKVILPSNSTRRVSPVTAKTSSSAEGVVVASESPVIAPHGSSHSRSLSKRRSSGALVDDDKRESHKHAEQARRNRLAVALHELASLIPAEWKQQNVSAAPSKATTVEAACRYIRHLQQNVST
# Assay: relative binding free energy (BET-seq); higher = weaker binding
# Conditions: reference: library average
row,Sequence,relative binding free energy
1,TGTGGCACGTGCGCGT,-0.31 kcal/mol
2,AAGTGCACGTGTAGAT,0.21 kcal/mol
3,TAGTCCACGTGTGTTT,0.18 kcal/mol
4,AATCTCACGTGATGTT,0.27 kcal/mol
5,TGAGCCACGTGAGTTG,0.15 kcal/mol
6,AAGGACACGTGTGGAG,0.06 kcal/mol
7,CAGTTCACGTGTTGTC,0.3 kcal/mol
8,CGAGGCACGTGTATGG,-0.21 kcal/mol
9,AGGGTCACGTGTAGGG,0.13 kcal/mol
10,GATTACACGTGAAGTT,0.54 kcal/mol
11,AGTTCCACGTGAGCGT,0.23 kcal/mol
12,TTTTACACGTGTGCTG,0.09 kcal/mol
13,GGCGCCACGTGGGGTA,-0.23 kcal/mol
14,GTTCTCACGTGCTGTT,0.28 kcal/mol
15,AATGTCACGTGTGCGG,0.18 kcal/mol
16,GCAGACACGTGGGAGG,-0.03 kcal/mol
17,GGTTTCACGTGGCGGG,0.42 kcal/mol
18,TCATTCACGTGTATAT,0.17 kcal/mol
19,TTGAACACGTGTGATT,0.08 kcal/mol
20,CTTTGCACGTGTGCTG,-0.06 kcal/mol
21,ACGTACACGTGAGGGT,0.29 kcal/mol

row,Sequence,relative binding free energy
1,AGCAACACGTGGTTGT,-0.01 kcal/mol
2,TTGCACACGTGGCGGG,-0.1 kcal/mol
3,GTATCCACGTGGGTTG,-0.12 kcal/mol
4,TGTAGCACGTGGGTTA,-0.11 kcal/mol
5,TCTTACACGTGTGCGT,0.15 kcal/mol
6,ACGTTCACGTGTGTTC,0.21 kcal/mol
7,TAAAACACGTGGGGAG,-0.17 kcal/mol
8,ACTGGCACGTGTTGAG,-0.07 kcal/mol
9,TTAAGCACGTGTCATG,-0.17 kcal/mol
10,AGTTACACGTGACGGG,0.35 kcal/mol
11,GGTGTCACGTGGCTTA,0.18 kcal/mol
12,GTTGGCACGTGGATGT,-0.02 kcal/mol
13,ATTTTCACGTGGTCAG,0.23 kcal/mol
14,AGATGCACGTGCAGGG,-0.14 kcal/mol
15,AGTCACACGTGGGGGG,-0.11 kcal/mol
16,GGGGGCACGTGAGGAT,0.07 kcal/mol
17,TTGGCCACGTGAGTAT,0.09 kcal/mol
18,TGGAGCACGTGGGGGT,-0.17 kcal/mol
19,TTAGTCACGTGAAGAT,0.31 kcal/mol
20,GTGTACACGTGTGTCT,0.07 kcal/mol
21,AGAAGCACGTGGCGTA,-0.09 kcal/mol

row,Sequence,relative binding free energy
1,GTGTGCACGTGCTCTT,0.05 kcal/mol
2,TGGTTCACGTGCGGGG,0.27 kcal/mol
3,TGTCGCACGTGAGGTG,0.14 kcal/mol
4,TGTATCACGTGCTTTA,0.11 kcal/mol
5,GAGTTCACGTGTAGGT,0.24 kcal/mol
6,CATAACACGTGGGCGG,0.02 kcal/mol
7,TTGTTCACGTGAATGC,0.4 kcal/mol
8,TTAAGCACGTGTTACG,-0.19 kcal/mol
9,AGGTACACGTGGTGTC,-0.1 kcal/mol
10,GTACTCACGTGGGTAT,0.05 kcal/mol
11,ATTATCACGTGTGATG,0.24 kcal/mol
12,TGATTCACGTGGTGGG,0.24 kcal/mol
13,TCGGGCACGTGGTCAG,-0.16 kcal/mol
14,CTTATCACGTGTGAAT,0.25 kcal/mol
15,ATGCGCACGTGGATAG,-0.1 kcal/mol
16,TTGATCACGTGTGTAC,0.15 kcal/mol
17,AGGAGCACGTGGCATG,-0.2 kcal/mol
18,ATGATCACGTGGTTTA,0.15 kcal/mol
19,GTGCTCACGTGATAGG,0.29 kcal/mol
20,GTTTTCACGTGGCCTT,0.48 kcal/mol
21,GGTATCACGTGATTTC,0.5 kcal/mol
